The text below walks through data of PMC12136788.

To fix the notation:
T1: UNK ZnF1-3 (human, UniProt Q9C0B0 31-174)
T1 sequence: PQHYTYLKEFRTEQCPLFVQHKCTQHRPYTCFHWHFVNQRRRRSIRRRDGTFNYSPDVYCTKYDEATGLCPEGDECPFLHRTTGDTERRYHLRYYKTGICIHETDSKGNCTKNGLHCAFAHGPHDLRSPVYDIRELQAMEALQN

B1: chr7:102939105:102939106:+_ENSG00000105819_ENST00000453466|hu_hu|FALSE|FALSE (ssRNA)
RNA: GGGAGUUCUACAGUCCGACGAUCUCCAACUGUGCAUGUUGAGAGCCCAGAGUCUUCCGAAGCUACUCUGAGUCCACUUUCUAAACAUGUUACUCUUGUUUCAGGAACAUUCAGAACAACUUGGGUAGCAGCCUGUGUACUUCUCAACAGAGGAUUGAGCAUCA
B2: chr16:94651144:94651145:+_ENSMUSG00000040785_ENSMUST00000117648|mus_hu|mus_mus_mus_hu_True|8_98 (ssRNA)
RNA: GGGAGUUCUACAGUCCGACGAUCAUUUUCUUGAAUCAAGUGACCGAUAACAUAGUCCACUGCUUCAUUUAGAAAAUUUCUGCUAGAAAAACAGGUUGUAUAGUCUUCUGUGCUCAAAACUUUCCAAGAGAGCAGCUCUUUGAGCAACAGAGGAUUGAGCAUCA
B3: chr10:34671499:34671500:-_ENSG00000148498_ENST00000340077|hu_mus|FALSE|FALSE (ssRNA)
RNA: GGGAGUUCUACAGUCCGACGAUCGAUGCUGAAUCCCAGUCCUUCUGUACCUUUCUUAAGCUGGAUGUUGAGCCUCUUGCCUACUUUCUUCGUGUUGUACACACUGCCUACGUUGGUACUAAGCACACUGGGUGGAGCCAAGGCCAACAGAGGAUUGAGCAUCA
B4: chr2:5814250:5814251:-_ENSMUSG00000025816_ENSMUST00000102981|mus_hu|mus_mus_mus_hu_True|18_78 (ssRNA)
RNA: GGGAGUUCUACAGUCCGACGAUCUUCCUUUCCGGUUUCUGAAUUUCUGGUAGAACUGCACAGAAAGGUUUGAUAACUUCUAAAAAUUUGAUGCCCAUGGCUGCUGCUGGGGAGGCCCGGCGGGCACCCGCGGCCUCGGCGCUGCAACAGAGGAUUGAGCAUCA
B5: chr4:95690885:95690886:+_ENSMUSG00000028572_ENSMUST00000156910|mus_mus|mus_mus_mus_hu_False|1_38 (ssRNA)
RNA: GGGAGUUCUACAGUCCGACGAUCUUUAGAAAAUGUUAAAUACCAUGCUAAAAUAUUUUCAAAGGCUUAUUUUAUUUUACCAGAAGUCACAGGCAAGCAGACACCAUAAGAAUAUAUGAAAAUGAAACUCAACAAUAAAAUGUACAACAGAGGAUUGAGCAUCA
B6: chr14:57575763:57575764:+_ENSMUSG00000021945_ENSMUST00000022511|mus_hu|motif|central (ssRNA)
RNA: GGGAGUUCUACAGUCCGACGAUCCACUGUUUUCAGGCCAAAAUACUUAGUGUUAAAGUAGAACAGUGUAUUCAGAAGAGCGGCUGGAGAGUGUGAUCCUAGUUGUUUUAUCCUCCAGAGAUAGUCUUCUUCAACUCGAGAGAACAACAGAGGAUUGAGCAUCA
B7: chr20:60963365:60963366:+_ENSG00000171858_ENST00000343986|hu_hu|motif|central (ssRNA)
RNA: GGGAGUUCUACAGUCCGACGAUCCGCACGGUAAAGUCCACGAUGUCCCGAAGUGAUGAGCAAAGCCCAGGGAAACACUCACCAUCCGGCGAAUGGCCCCGCAGAUAGCAUAAGUUUUAAACUGGCCAUUAAACCUGCCUGUGACAACAGAGGAUUGAGCAUCA
B8: 118619289_118619409_1883_CDS_ENSG00000135090_ENST00000392533|human|control|control (ssRNA)
RNA: GGGAGUUCUACAGUCCGACGAUCAGCCUUCAGCUUGUUCUCCAGGGCGAUCAGCUGCUUCUGGUGCUGGCGCCGCAUCCGCUUAUAACCUGACAUCUGUUCCCGCAACUCGUUCUCCUGCUCAUGCUCAUGGAUCUGUCGUGUCAACAGAGGAUUGAGCAUCA
B9: 15618368_15629092_1094_CDS_ENSG00000151779_ENST00000281513|human|control|control (ssRNA)
RNA: GGGAGUUCUACAGUCCGACGAUCCUCAGUAGAGAGCCUCCAAUCAGGAUUAAGGUCAUCAUAGCCUGGCUGCUCAUUUUGACCCCAUUCCCCUUGUUGCUUCAGAGAUGGAAUCGCCCAGAUGCUCAGUUUCCCUGAGAAGUGCAACAGAGGAUUGAGCAUCA
B10: chr12:16048344:16048345:+_ENSG00000023734_ENST00000419869|hu_hu|hu_hu_hu_mus_True|38_78 (ssRNA)
RNA: GGGAGUUCUACAGUCCGACGAUCAGAUCGUCCAUAAGUAAUAACCAAAAUCUCUCCCUCAGGAAUAUACUCCAUGCUGCUAACAGACAUAUUAAAAUUUAGAGAUUUCACUUCUGUCAUUGUGGCAUGAUCCCAGAGCCGAACCAACAGAGGAUUGAGCAUCA
B11: 130452956_130454814_1383_CDS_ENSG00000196455_ENST00000356763|human|control|control (ssRNA)
RNA: GGGAGUUCUACAGUCCGACGAUCGUGAAUCAUCUGAGUUACCAAUUCUCUGAUACUGUGAUCUUCAAUUUUAUUUAGCACUUGUUCAGGGAAAAAAUGUCCAUUUCUAUAAGCCAAAAGUUGAGAGAGAUCAAAUAAUGGUACCAACAGAGGAUUGAGCAUCA
B12: chr9:136227202:136227203:+_ENSG00000148291_ENST00000371964|hu_hu|FALSE|FALSE (ssRNA)
RNA: GGGAGUUCUACAGUCCGACGAUCCUCAUCAGUGGCCUUCUCUCUUGGGGGCUUUGCCUUCUCAUCCUCUUUGUCUGUCAAAAAGUCAUCAGUGCCAUCCCCAUCCUCCGUGCUUCCAAGGUCCUUUCUGGUGAAUAGCUCAGGCAACAGAGGAUUGAGCAUCA
B13: chr16:92112057:92112058:+_ENSMUSG00000039680_ENSMUST00000047429|mus_mus|FALSE|FALSE (ssRNA)
RNA: GGGAGUUCUACAGUCCGACGAUCGCCGUCACACUCUUUUACUUCCUGGGUCAGAGGGUGUUUCACAAUAUUUGGUCUAACCACGUCAAUGUCUCGCGCCAAGUGUUCCAGUAUGUUCUCCACAGCACUUGUCGGAGCAUAAAACAACAGAGGAUUGAGCAUCA
B14: chr2:76468371:76468372:-_ENSMUSG00000002731_ENSMUST00000002808|mus_mus|FALSE|FALSE (ssRNA)
RNA: GGGAGUUCUACAGUCCGACGAUCUACCAGGAGACAUUUAAAUCUGGAAAGUUGACGGAAUCUGAAGAGAUUUGGAAAGGACACACAGACAUACAUUACAGUAAACAUUUUGCUUGGAAAGAAGGGCGAGGGAAACUUCUUUGCCAACAGAGGAUUGAGCAUCA

The list shows a part of the results.

This assay concerns the target T1, UNK ZnF1-3. Put plainly: nsRBNS (natural sequence RNA bind-n-seq); RBNS binding buffer (assumed for nsRBNS): 25 mM Tris pH 7.5, 150 mM KCl, 3 mM MgCl2, 0.01% Triton X-100, 500 ug/ml BSA, 20 U/ml SUPERase-In, 4 C; UNK is unkempt and MSI1 is Musashi-1; names of the RNAs are library labels; protein concentration not given here; high values mean tight binding.
The molecule B1 gave a binding signal of 0.572 enrichment R. Consider B2, for which the binding signal was determined as 0.707 enrichment R. B3 returned a binding signal of 0.675 enrichment R. The figure for B4 is 1.06 enrichment R.

Take B5: the binding signal was 3.08 enrichment R. In the case of B6, the binding signal is 1.41 enrichment R. The figure for B7 is 1.18 enrichment R; for B8 it is 0.736 enrichment R. In turn, B9 returned a binding signal of 1.34 enrichment R.

As to B10, the binding signal was 1.44 enrichment R. The figure for B11 is 0.937 enrichment R. The figure for B12 is 0.768 enrichment R; for B13 it is 0.651 enrichment R; for B14 it is 1.65 enrichment R.
